# Laboratory results published in PubChem BioAssay AID886 (National Center for Advancing Translational Sciences (NCATS), 2007).
# Out of some 73,000 compounds screened, about 2,500 (3.4%) were called active. The shares of active, inactive and inconclusive entries below differ from those in the screen. Calls follow the shape of the dose curve; as a rule, active = well fitted inhibition curve with a large enough effect; inconclusive = small, poorly fitted or top-dose-only effect; inactive = no such curve, though single readings can be large or run the other way. A potency beside an inconclusive call is a rough fit, not a confirmed value.
# Target: 3-hydroxyacyl-CoA dehydrogenase type-2 (Homo sapiens) (UniProt Q99714)
# Test: qHTS Assay for Inhibitors of HADH2 (Hydroxyacyl-Coenzyme A Dehydrogenase, Type II); also: nearly all actives have a fitted effect of over 60% in size
# Conditions: recombinant HADH2, NADH fluorescence, beta-hydroxybutyryl-CoA; activity change, negative = inhibition: at 57.1 µM (top of the series)
# How it was run: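 E. coli-expressed His-tagged HADH2 tested at 20 nM in alkaline Tris buffer (pH 9.0); oxidation of 90 uM beta-hydroxybutyryl-CoA with 1 mM NAD+ tracked fluorimetrically for 4 min.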
# % is scaled to controls: 0 for no effect and ±100 for the full control effect; potency is read from the fitted curve at half-maximal effect; tags tell the direction and shape of the fitted curve.
# UniProt Q99714, sequence (Q99714 whole entry, looked up): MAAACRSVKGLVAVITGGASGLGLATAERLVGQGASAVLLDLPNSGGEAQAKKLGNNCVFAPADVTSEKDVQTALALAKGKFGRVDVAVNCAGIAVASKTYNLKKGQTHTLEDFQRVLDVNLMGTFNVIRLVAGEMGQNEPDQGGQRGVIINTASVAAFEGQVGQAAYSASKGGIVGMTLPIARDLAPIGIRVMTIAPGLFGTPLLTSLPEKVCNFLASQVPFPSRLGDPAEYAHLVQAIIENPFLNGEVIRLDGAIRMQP
# UniProt Q99714, sequence (Q99714 whole entry, looked up): as above
Compound,"activity change, negative = inhibition",Potency
CC(=O)NCc1nc2ccccc2n1C(C)C,inactive: -2.07%,–
O=C(CN1C(=O)c2ccccc2S1(=O)=O)N1CCOCC1,inactive: 0.441%,–
CN1CCc2c(sc3c2C(=O)NC(c2cccs2)N3)C1 (configuration not stated),–,"inconclusive: 15.8 µM [inhibitor, partial curve]"
C=CCOC(=O)C(C(C)=O)C(NC(=O)OC)c1ccc2ccccc2c1 (configuration not stated),inactive: 13.9% [at 11.4 µM],–
C=CC(=O)c1ccc2ccccc2c1,–,active: 20 µM
O=C1/C(=N/n2cnnc2)c2ccccc2N1Cc1ccccc1,–,"inconclusive: 31.6 µM [inhibitor, single point]"
COc1ccc(-n2ncc3c(N4CCCc5ccccc54)ncnc32)cc1,–,"inconclusive: 39.8 µM [inhibitor, single point]"
CCn1c(SCC(=O)NCCOC)nc2sc3c(c2c1=O)CCCC3,inactive: -15.7%,–
COc1cc2c3c(c1)/C(=C1/SC(NC(C)=O)=NC1=O)C(=O)N3C(C)(C)C=C2C,–,"inconclusive: 31.6 µM [inhibitor, single point]"
N#CC1=C(N)Oc2n[nH]c(-c3ccncc3)c2C1c1ccsc1 (configuration not stated),–,"inconclusive: 15.8 µM [inhibitor, partial curve]"
CCCn1c(-c2ccc(F)cc2)nc2c(NCC(C)(C)CN(C)C)nc(C)nc21,–,"inconclusive: 39.8 µM [inhibitor, single point]"
O=C(c1ccccc1Oc1ccccc1)N1CCN(c2ccccc2)CC1,–,"inconclusive: 31.6 µM [inhibitor, single point]"
Cc1cc(N)c2ccccc2[n+]1CCCCCCCCCCCCCC[n+]1c(C)cc(N)c2ccccc21,–,"inconclusive: 31.6 µM [inhibitor, single point]"
CCOC(=O)c1c(NC(=O)CSc2nnc(-c3ccccc3C)n2C)sc(C(C)=O)c1C,–,active: 25.1 µM
CC(CCc1ccco1)NC(=O)Nc1cccc(F)c1 (configuration not stated),inactive: 11.6%,–
COc1ccc2[nH]c(=O)c(CN(Cc3cccnc3)C(=O)Nc3ccccc3)cc2c1,–,"inconclusive: 39.8 µM [inhibitor, single point]"
O=C(CSC1=NCCS1)Nc1nc2c(s1)CCCC2,–,"inconclusive: 20 µM [inhibitor, partial curve]"
COc1ccccc1N1CC(O)=C(c2nc3ccccc3s2)C1=N,–,"inconclusive: 31.6 µM [inhibitor, single point]"
O=C(O)CCSCCC(=O)O,–,"inconclusive: 39.8 µM [inhibitor, single point]"
CCCc1c(C)c2ccc(OCC(C)=O)cc2oc1=O,–,active: 20 µM
c1ccc(-c2ccc(N3CC4(CCNCC4)C3)cc2)cc1,–,"inconclusive: 39.8 µM [inhibitor, single point]"
CO[C@@]1(NC(=O)Cc2cccs2)C(=O)N2C(C(=O)O)=C(COC(N)=O)CS[C@@H]21,–,"inconclusive: 15.8 µM [inhibitor, partial curve]"
CCn1c(SCc2nc(-c3ccc(OC)c(OC)c3)no2)nnc1-c1cccs1,inactive: 12.1%,–
O=C(COc1ccccc1)OCc1cc2ccccc2[nH]c1=O,inactive: -3.98%,–

Compound,"activity change, negative = inhibition",Potency
CCOC(=O)Cc1nnc(NC(=O)c2ccccc2OC)s1,–,"inconclusive: 39.8 µM [inhibitor, single point]"
c1c2c(cc3sc(N4CCOCC4)nc13)OCO2,–,active: 10 µM
N#CC1=C(N)NC(SCC(=O)O)=C(C#N)C12CCCC2,–,"inconclusive: 39.8 µM [inhibitor, single point]"
COCCNc1ncnc2ccc(-c3cccnc3)cc12,–,"inconclusive: 25.1 µM [inhibitor, single point]"
CCOc1ccc(-c2nnc3ccc(SCc4ccc(C(=O)OC)o4)nn23)cc1,–,"inconclusive: 39.8 µM [inhibitor, single point]"
CCN1c2ccccc2-c2nc3ccccc3n2C1c1ccccn1 (configuration not stated),–,active: 20 µM
CCOC(=O)c1c(N2C(=O)C3C4C=CC(O4)C3C2=O)sc2c1CCCC2 (configuration not stated),–,"inconclusive: 0.794 µM [inhibitor, full curve]"
CCOC(=O)NC1(C(F)(F)F)C(=O)N(Cc2ccccn2)C2=C1C(=O)CC(C)(C)C2 (configuration not stated),inactive: 10.4%,–
CCOc1cc(C2C3=C(CCCC3=O)NC3=C2C(=O)CCC3)cc(Cl)c1O,–,"inconclusive: 20 µM [inhibitor, single point]"
CC(C)Nc1nnc(SCC(=O)Nc2ccc(F)cc2)s1,–,"inconclusive: 39.8 µM [inhibitor, single point]"
Cc1cccc(-n2c(O)c(C=Nc3c(C)n(C)n(-c4ccccc4)c3=O)c3ccccc3c2=O)n1,inactive: 2.12%,–
CCOC(=O)c1cnc(SCc2nc(N)nc(Nc3ccc(F)cc3)n2)nc1N,–,"inconclusive: 39.8 µM [inhibitor, single point]"
O=C1CCCc2c1nc(-c1ccco1)n2O,–,"inconclusive: 39.8 µM [inhibitor, single point]"
Cc1ccsc1C1NC(=O)c2ccccc2N1 (configuration not stated),–,"inconclusive: 10 µM [inhibitor, partial curve]"
NC(=O)c1nn(-c2ccccc2)nc1NC(=O)CN1CCCCC1,inactive: -3.42%,–
O=S(=O)(c1cccc(-c2cn3cccnc3n2)c1)N1CCOCC1,–,active: 10 µM
O=C1CC(Sc2nnnn2C2CCCCC2)C(=O)N1c1ccccc1 (configuration not stated),inactive: -1.95%,–
O=C(c1cccc(C(=O)N2CCN(c3ccccc3F)CC2)c1)N1CCN(c2ccccc2F)CC1,–,"inconclusive: 6.31 µM [inhibitor, single point]"
CCC(Sc1nc2ccccc2s1)C(=O)Nc1nnc(C)s1 (configuration not stated),–,"inconclusive: 31.6 µM [inhibitor, single point]"
COc1cc(OC)c(C2CC(=O)N3CN(c4ccccc4C)CSC3=C2C#N)cc1OC (configuration not stated),–,"inconclusive: 0.631 µM [inhibitor, full curve]"
O=C(c1cc(C(F)(F)F)cc(C(F)(F)F)c1)N1CCC2(CC1)CN(c1ccccc1)C2,–,"inconclusive: 1.26 µM [inhibitor, full curve, poor fit]"
CCn1c2c(c3cc(Cl)ccc31)CCCC2=O,–,"inconclusive: 31.6 µM [inhibitor, single point]"
C/C=C\C1=C(CO)C(=O)C2O[C@]2(CC=C(C)C)C1=O (some centres not stated),–,"inconclusive: 7.94 µM [inhibitor, single point]"
